About 14,000 (4.5%) of roughly 310,000 compounds showed an effect of 50% or more. Effects have a minus sign here. The list shows a part of the results.
The compounds below were run against human ether-à-go-go-related gene (hERG) potassium channel (human, UniProt Q12809) (assay: primary screen, population patch clamp on CHO cells stably expressing hERG).
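Note: peak tail current of the secondary pulse compared with the same well before compound.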

human ether-à-go-go-related gene (hERG) potassium channel, sequence (Q12809 whole entry, looked up): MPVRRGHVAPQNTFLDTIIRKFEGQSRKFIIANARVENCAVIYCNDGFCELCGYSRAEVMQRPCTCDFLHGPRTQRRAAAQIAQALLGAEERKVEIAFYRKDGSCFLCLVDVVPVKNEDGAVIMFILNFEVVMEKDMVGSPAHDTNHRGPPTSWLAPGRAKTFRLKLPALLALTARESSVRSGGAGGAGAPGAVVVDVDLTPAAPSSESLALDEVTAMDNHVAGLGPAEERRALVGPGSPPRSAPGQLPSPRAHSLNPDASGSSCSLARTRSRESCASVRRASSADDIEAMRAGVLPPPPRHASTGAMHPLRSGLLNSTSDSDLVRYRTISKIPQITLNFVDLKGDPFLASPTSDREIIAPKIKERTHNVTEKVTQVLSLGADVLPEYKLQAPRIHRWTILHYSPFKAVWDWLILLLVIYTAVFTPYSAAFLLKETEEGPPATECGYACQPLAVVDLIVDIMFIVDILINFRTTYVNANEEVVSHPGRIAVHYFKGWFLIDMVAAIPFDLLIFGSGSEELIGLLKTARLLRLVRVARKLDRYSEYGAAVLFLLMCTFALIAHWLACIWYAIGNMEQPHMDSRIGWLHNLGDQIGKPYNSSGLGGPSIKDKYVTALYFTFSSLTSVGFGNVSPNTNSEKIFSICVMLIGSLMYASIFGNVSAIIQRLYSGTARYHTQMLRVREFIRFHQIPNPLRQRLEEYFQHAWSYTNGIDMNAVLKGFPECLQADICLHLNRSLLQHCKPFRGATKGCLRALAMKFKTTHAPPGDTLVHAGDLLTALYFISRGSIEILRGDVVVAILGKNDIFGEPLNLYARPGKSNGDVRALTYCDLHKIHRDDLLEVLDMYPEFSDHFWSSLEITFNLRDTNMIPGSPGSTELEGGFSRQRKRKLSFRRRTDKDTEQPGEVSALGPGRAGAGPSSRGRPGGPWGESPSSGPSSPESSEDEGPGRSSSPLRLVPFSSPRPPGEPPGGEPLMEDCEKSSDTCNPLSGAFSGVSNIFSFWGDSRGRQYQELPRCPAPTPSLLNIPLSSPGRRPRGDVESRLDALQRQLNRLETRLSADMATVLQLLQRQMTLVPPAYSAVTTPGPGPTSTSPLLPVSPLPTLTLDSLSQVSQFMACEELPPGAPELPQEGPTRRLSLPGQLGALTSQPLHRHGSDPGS

| SMILES | hERG current change (%, negative = inhibition) at 10uM [%] |
| --- | --- |
| COc1ccc(C2CC(=O)c3cnc(NC(=O)c4ccco4)nc3C2)cc1 (stereo not drawn) | -4.36 |
| O=C(NCCN1CCCCC1)Nc1cccc(Cl)c1Cl | -29.3 |
| O=C(N/N=C/c1cccnc1)C12CC3CC(CC(C3)C1)C2 | 19.1 |
| O=C(c1cccc2ccccc12)N1CCCCC1 | 16.2 |
| CCOC(=O)N1CCN(C(=O)c2ccc3c(=O)n(Cc4ccccc4)c(=S)[nH]c3c2)CC1 | -43.8 |
| CCC(=O)N1CC2(c3ccccc3)CN(C(=O)CC)CC(c3ccccc3)(C1)C2=O | 5.6 |
| CN(Cc1ccc(Cl)cc1)C(=O)COC(=O)c1ccc(-c2ccc(O)cc2)cc1 | 7.23 |
| CN(Cc1ccccc1Cl)C(=O)c1cnccc1C(F)(F)F | 2.87 |
| O=C(CSc1nnc(-c2ccc(Cl)cc2)n1Cc1ccco1)NCc1ccc2c(c1)OCO2 | -75.3 |
| O=c1c2c(-c3ccccc3)ccnc2[nH]n1-c1ccccc1 | 16.5 |
| COc1ccc(Br)c(C(=O)NNC(=O)c2ccc(NS(=O)(=O)c3cccs3)cc2)c1 | 12.6 |
| Cc1ccc(NC(=O)C2COc3ccccc3O2)cc1C (stereo not drawn) | 3.72 |
| Cc1cc(CNC(=S)Nc2ccc(S(=O)(=O)Nc3ncccn3)cc2)nn1C | 8.18 |
| Cc1ccccc1CN1CCC(CNC(=O)Nc2ccc(F)cc2F)CC1 | -31.4 |
| CCOc1ccc(-c2nnn(CC#N)n2)cc1OC | -7.44 |
| CCOC(=O)c1cc(C)sc1NC(=S)Nc1ccccc1 | 10.1 |
| Cc1cc(=O)oc2c(C)c(OCC(=O)NCCc3ccc(S(N)(=O)=O)cc3)ccc12 | 7.3 |
| CC(C)CNC(=S)NC1CC2CCCC(C1)N2Cc1cccs1 (stereo not drawn) | -34.8 |
| CCOc1ccc(CN(C)C(=O)c2ccc(NS(=O)(=O)c3ccc4[nH]c(=O)[nH]c4c3)cc2)cc1 | 18.3 |

| SMILES | hERG current change (%, negative = inhibition) at 10uM [%] |
| --- | --- |
| COc1cc(OC)cc(-c2nc(-c3ccccc3)no2)c1 | 5.45 |
| CS(=O)(=O)c1ccc2nnn(OCC(=O)Nc3ccc(Br)cc3Br)c2c1 | 7.34 |
| COc1cc2c(cc1NC(=O)COc1ccccc1OC)oc1ccccc12 | 13.8 |
| CC(C)(C)NC(=O)CSc1ncnc2c1nnn2Cc1ccccc1Cl | -13.2 |
| O=C(Nc1cc(Cl)ccc1N1CCCC1)C1=NN(c2ccccc2)C(=O)CC1 | -16.9 |
| CCOC(=O)c1c2c(n(C)c1COC)C(=O)C(=O)c1ccc(Br)cc1-2 | 17.1 |
| Cc1oc2ccc(OC(C(=O)O)c3ccccc3)cc2c1C(=O)O (stereo not drawn) | 3.65 |
| Cc1ccc(CNC(=O)CSc2nc(C)cs2)cc1 | 15.4 |
| COc1ccc(N(CC(=O)N2CCc3ccccc3C2)S(=O)(=O)c2ccccc2)cc1 | -32.1 |
| COc1ccc(CN(CC(=O)NCc2ccc(F)cc2)C(=O)CCC(=O)Nc2nccs2)cc1 | -20.4 |
| Cc1ccc([N+](=O)[O-])cc1 | 11.4 |
| CN(CC(=O)NCCc1ccccc1)S(=O)(=O)c1cccs1 | 0.465 |
| CCCN(CCC)CCNC(=O)c1cc2c(-c3ccccc3F)nn(C)c2s1 | -47.2 |
| COc1ccc(C(=O)NCc2ccc(-c3nc4ccccc4s3)cc2)cc1 | 10.1 |
| O=C(CN(Cc1ccc(F)cc1)C(=O)C1CSC(=O)C1)NC1CCCCC1 (stereo not drawn) | -22 |
| Cc1ccccc1NC(=O)CSC1=NCCN1.Cl | 16 |
| Cc1ccccc1C1c2[nH]c3ccccc3c2CCN1C(=O)c1ccc(=O)n(C)n1 (stereo not drawn) | -10.6 |
| Cc1cc2cc(C#N)c(NCCNC(=S)NCCCN3CCOCC3)nc2cc1C | -24.5 |
| Cn1c(SCC(=O)Nc2cc(Cl)cc(Cl)c2)nnc1-c1ccc2nonc2c1 | 21.1 |

| SMILES | hERG current change (%, negative = inhibition) at 10uM [%] |
| --- | --- |
| CCOC(=O)CNC(=O)C1(/C=C/c2ccccc2)CC(=O)N1c1ccc(C)cc1 (stereo not drawn) | -12.4 |
| CCC1CCCCN1C(=S)NC1CCCCC1 (stereo not drawn) | 17.2 |
| CCOc1ccc(NC(=O)C2CC(=O)N(c3ccccc3F)C2)cc1 (stereo not drawn) | 5.41 |
| CS(=O)(=O)Nc1ccc(C(=O)NCc2ccc3c(c2)OCO3)cc1 | -27.8 |
| CCCCOc1cccc(NC(=O)CSc2nncn2C)c1 | -9.67 |
| CC(C)OCCCNC(=O)NC12CC3CC(CC(C3)C1)C2 | -9.81 |
| O=C(CN(Cc1ccc(Br)cc1)S(=O)(=O)c1ccccc1)NCc1ccccn1 | -42 |
| O=C(OCC1OC(Oc2ccc(O)cc2)C(O)C(O)C1O)c1ccccc1 (stereo not drawn) | 14.5 |
| Cc1ccc(S(=O)(=O)c2nc(-c3ccccc3)oc2NCc2cccnc2)cc1 | -16 |
| Cc1ccc(-c2nc(COC(=O)c3c(C)noc3C)cs2)cc1 | -11.7 |
| COc1ccc(OC)c2c1cc(C(=O)N[C@@H](Cc1ccccc1)C(=O)O)n2C | 17.3 |
| COc1cccc(C2C(C(=O)Nc3ccc(C)cc3C)=C(C)Nc3ncnn32)c1OC (stereo not drawn) | 7.02 |
| CC(C)C[C@@H](CC#N)N1CCN(Cc2ccccc2)CCC1=O | 2.24 |
| O=[N+]([O-])c1ncccc1OCc1ccc(Br)cc1F | 13 |
| Cc1[nH]n(-c2ccccc2)c(=O)c1C(c1ccccc1[N+](=O)[O-])C(C#N)C#N (stereo not drawn) | 12.9 |
| COc1ccc(C(C)(C)C)cc1NC(=O)Cn1cnnn1 | 9.38 |
| Cc1cccc(CN2CCNC2=O)c1 | 16.3 |
| O=C(CN1CCN(S(=O)(=O)N2CCCCC2)CC1)Nc1cc(Cl)cc(Cl)c1 | -32.5 |
| O=c1c(OC2OC(CO)C(O)C(O)C2OC2OC(CO)C(O)C(O)C2OC2OC(CO)C(O)C(O)C2O)c(-c2ccc(O)c(O)c2)oc2cc(O)cc(O)c12 (stereo not drawn) | 11.1 |
